Data on 41 variants can be found in the RNAGym collection of RNA variant scans (doi:10.7554/elife.90254).

Read counts are not given, so values of variants with three or more changes are uncertain.

B1: OR4K15 (parent)
chain: GUUAACGGUCAUAGGCCAUGGAAACUAGGAGCACCAUUUCGCUGCCAGUGAAGAAAUGAACAAAGAAAAUCUGGGCCAGGCAGGCAUCAAAAGAAAUAGUCUUGCGCUCAACCAGAAAGUCUGUAAUCAUUUUAAGGGUA

The series covers variants of B1. The experiment in a line: self-cleavage, relative activity (ratio to wild type); higher = more cleavage; in vitro, sequencing; the parent is a self-cleaving ribozyme.
With GUUAACGGUCAUAGGCCAUGGAAACUAGGAGCACCAUUUCGCUGCCAGUGAAGAAAUGAACGAAGAAAAUCUGGGCCAGGCAGGCAUCAGAAGGAAUAGUCUUGCGCUCAGCCAGAAAGUCUGUAAUCAUUUUAAGGGUA [A62G A90G A94G A111G], the self-cleavage was determined as 0.01.

As to GUUAACGGUCAUAGGCCAUGGAAACUAGGAGCACCAUUUCGCUGCCAGUGAAGAAAUGAACAGAGAAAGUCUGGGCCCGGCAGGCAUCAAAAGAAAUAGUCUUGCGCUCAACCAGAAAGUCUGUAAUCAUUUUAAGGGUA [A63G A69G A78C], the self-cleavage was 0.36.

With GUUAACGGUCAUAGGCCAUGGAAACUAGGAGCACCAUUUCGCUGCCAGUGAAGAAAUGAACUAAGAAAAUCUGGGCCAGGCAGGCAUCAAAAGAAAUAGUCUUGCGCUCAACCAGAUAGUCUGUGAUCAUUUUAAGGGUA [A62U A117U A125G], the self-cleavage came out at 0.5. The figure for GUUAACGGUCAUAGGCCAUGGAAACUAGGAGCACCAUUUCGCUGCCAGUGAAGAAAUGAACGAAGAAAAUCUGGGCCAGGCAGGCAUCAAAAGAAAUAGUCUUGCGCUCAACCGGAAAGUCUGUAAACAUUUUAAGGGUA [A62G A114G U127A] is 0.59; for GUUAACGGUCAUAGGCCAUGGAAACUAGGAGCACCAUUUCGCUGCCAGUGAAGAAAUGAACUAAGAAAAUCUGGGCCAGGCAGGCAUCAAAAGGAAUAGUCUUGCGCUCGACCAGAAAGUCUGUAAUCAUUUUAAGGGUA [A62U A94G A110G] it is 0.16.

GUUAACGGUCAUAGGCCAUGGAAACUAGGAGCACCAUUUCGCUGCCAGUGAAGAAAUGAACGAAGAAAAUCUGGGCCAGGCAGGCAUCAAAGGAAAUAGUCUUGCGCUCAACCAGAAAGUCUGUAAUCGUUUUAAGGGUA [A62G A92G A129G]: the self-cleavage is 0.85. Next, GUUAACGGUCAUAGGCCAUGGAAACUAGGAGCACCAUUUCGCUGCCAGUGAAGAAAUGAACUAAGGAAAUCUGGGCCAGGCAGGCAUCAAAAGAAAUAGUCUUGCGCUCAACCAGAAAGUCUGUAAUCACUUUAAGGGUA [A62U A66G U130C]: 0.69; GUUAACGGUCAUAGGCCAUGGAAACUAGGAGCACCAUUUCGCUGCCAGUGAAGAAAUGAACGAAGAAAAUCUGGGCCAGGCAGGCGUCAAAAGAAAUAGUCUUGCGCUCAACCAGAAAGCCUGUAAUCAUUUUAAGGGUA [A62G A86G U120C]: 0.37; GUUAACGGUCAUAGGCCAUGGAAACUAGGAGCACCAUUUCGCUGCCAGUGAAGAAAUGAACGAAGAAAAUCUGGGCCAGGCAGGCAUCAAAAGAAACAGUCUUGCGCUCAACCAGAAAGUCUGUAACCAUUUUAAGGGUA [A62G U97C U127C]: 0.25. The figure for GUUAACGGUCAUAGGCCAUGGAAACUAGGAGCACCAUUUCGCUGCCAGUGAAGAAAUGAACAGGGAAAAUCUGGGCCAGGCAGGCAUCAAAAGAAAUAGUCUUGCGCUCAACCAGAAAGUCUGUAAUCAUUCUAGGGGUA [A63G A64G U132C A135G] is 0.77; for GUUAACGGUCAUAGGCCAUGGAAACUAGGAGCACCAUUUCGCUGCCAGUGAAGAAAUGAACGAAGAAAAUCUGGGCCAGGCAGGCAUCAGAAGAAAUAAUCUUGCGCUCAACCAGAAAGUCUGUAAUCAUUUUAAGGGUA [A62G A90G G99A] it is 0.27; for GUUAACGGUCAUAGGCCAUGGAAACUAGGAGCACCAUUUCGCUGCCAGUGAAGAAAUGAACGAAGAAAAUCUGGGCCAGGCAGGCAUCAAAAGAAAUAGUCUUGCGCUCAACCGGAGAGUCUGUAAUCAUUUUAAGGGUA [A62G A114G A117G] it is 0.12. As to GUUAACGGUCAUAGGCCAUGGAAACUAGGAGCACCAUUUCGCUGCCAGUGAAGAAAUGAACGAAGAAAAUCUGGGCCAGGCAGGCAUCAAAAGUAGUAGUCUUGCGCUCAACCAGAAGGUCUGUAAUCAUUUUAAGGGUA [A62G A94U A96G A118G], the self-cleavage stood at 0.11. Next, GUUAACGGUCAUAGGCCAUGGAAACUAGGAGCACCAUUUCGCUGCCAGUGAAGAAAUGAACGAAGAAAAUCUGGGCCAGGCAGGCACCAAAAGAGAUAGUCACGCGCUCAACCUGAAAGUCUGUAAUCAUUUUAAGGGUA [A62G U87C A95G U102A U103C A114U]: 0.01; GUUAACGGUCAUAGGCCAUGGAAACUAGGAGCACCAUUUCGCUGCCAGUGAAGAAAUGAACGAAGAAAAUCUGGGCCAGGCAGGCAUCAAAGGAAAUAGUCUUGCGCUCAACCAGAGAGUCUGUAAUCAAUUUAAGGGUA [A62G A92G A117G U130A]: 0.55.

GUUAACGGUCAUAGGCCAUGGAAACUAGGAGCACCAUUUCGCUGCCAGUGAAGAAAUGAACUAAGAAAAUCUGGGCCAGGCAGGCAUCAAAAGACAUAGUCUUGCGCUCAACCAGAAAGUCUGUAACCAUUUUAAGGGUA [A62U A95C U127C]: the self-cleavage is 0.55.

As for GUUAACGGUCAUAGGCCAUGGAAACUAGGAGCACCAUUUCGCUGCCAGUGAAGAAAUGAACUAAGAAAAUCUGGGCCAGGCAGGCAUCAAAAGAAAUAGUCUUGCGCUCAACCAGAGAGCCUGUAAUCAUUUUAAGGGUA [A62U A117G U120C], the self-cleavage turned out to be 1.02. Take GUUAACGGUCAUAGGCCAUGGAAACUAGGAGCACCAUUUCGCUGCCAGUGAAGAAAUGAACUAAGAAAAUCUGGGCCAGGCAGGCAUCAAAAGAAAUAGUCUUGCGCUCUACCAGAAAGUCGGUAAUCAUUUUAAGGGUA [A62U A110U U122G]: the self-cleavage was found to be 0.94. Next, GUUAACGGUCAUAGGCCAUGGAAACUAGGAGCACCAUUUCGCUGCCAGUGAAGAAAUGAACGAAGAAAAUCUGGGCCAGGCAGGCAUCAAAAGAAAUAGUCCUGCGCCCAACCAGAAAGUCUGUAAUCAUUUUAAGGGUA [A62G U102C U108C]: 0.02; GUUAACGGUCAUAGGCCAUGGAAACUAGGAGCACCAUUUCGCUGCCAGUGAAGAAAUGAACUAAGAAAAUCUGGGCCAGGCAGGCAUCGAAAGAAAUAGUCUUGCGCUCAACCAGAAAGUCUGUAAACAUUUUAAGGGUA [A62U A89G U127A]: 2.9; GUUAACGGUCAUAGGCCAUGGAAACUAGGAGCACCAUUUCGCUGCCAGUGAAGAAAUGAACAGAGUAAAUCUGGGCCAGGCAGGCAUCAAGAGAAACAGUCUUGCGCUCAACCAGAAAGUCUGUAAUCAUUUUAAGGGUA [A63G A66U A91G U97C]: 0.9.

In the case of GUUAACGGUCAUAGGCCAUGGAAACUAGGAGCACCAUUUCGCUGCCAGUGAAGAAAUGAACGAAGAAAAUCUGGGCCUGGCAGGCAUCAAGAGAAAUAGUCUUGCGCUCAACCAGAAAGUCUGUAAUCAUUUUAAGGGUA [A62G A78U A91G], the self-cleavage was 0.1. Next, GUUAACGGUCAUAGGCCAUGGAAACUAGGAGCACCAUUUCGCUGCCAGUGAAGAAAUGAACGAAGAAAAUCUGGGCCAGGCAGGCAUCAAAAGAAAUAGUCUUGCGCUCAGCCAGAAAGUCCGUAAUCAUUUUAAGGGUA [A62G A111G U122C]: 0; GUUAACGGUCAUAGGCCAUGGAAACUAGGAGCACCAUUUCGCUGCCAGUGAAGAAAUGAACGAAGAAAAUCUGGGCCAGGCAGGCAUCAAAAGAGAUAGUCUUGCGCUCAACCAGAAAGUCUGUAAUCAUUUUAAGGGCG [A62G A95G U139C A140G]: 2.11; GUUAACGGUCAUAGGCCAUGGAAACUAGGAGCACCAUUUCGCUGCCAGUGAAGAAAUGAACGAAGAAAAUCUGGGCCUGGCAGGCAUCAAAAGAAAUAGUCUUGCGCUCAACCAGAAAGUCUGUAACCACUUUAAGGGUA [A62G A78U U127C U130C]: 0.03.

Take GUUAACGGUCAUAGGCCAUGGAAACUAGGAGCACCAUUUCGCUGCCAGUGAAGAAAUGAACUAAGAAAAUCUGGGCCAGGCAGGCAUCAGAAGAAAUAGUCUUGCGCUCAACCAGAAAGUCUGUAAUCAUUCUAAGGGUA [A62U A90G U132C]: the self-cleavage came to 0.46. As to GUUAACGGUCAUAGGCCAUGGAAACUAGGAGCACCAUUUCGCUGCCAGUGAAGAAAUGAACGAAGAAAAUCUGGGCCAGGCAGGCAUCAAAAGAAGUAUCCUUGCGCCCGACCAGAAAGUCUGUAAUCAUUUUAAGGGUA [A62G A96G G99U U100C U108C A110G], the self-cleavage came out at 0. The figure for GUUAACGGUCAUAGGCCAUGGAAACUAGGAGCACCAUUUCGCUGCCAGUGAAGAAAUGAACGAAGAAAAUCUGGGCCAGGCAGGCAUCAAAAGAAAUGGUCUUGCGCUCAACCAGAAAGUCUGUAAUCGUUUUAAGGGUA [A62G A98G A129G] is 0.25; for GUUAACGGUCAUAGGCCAUGGAAACUAGGAGCACCAUUUCGCUGCCAGUGAAGAAAUGAACGAAGAAAAUCUGGGCCAGGCAGGCAUCAUAAGGAAUAGUCUUGCGCUCAACCAGAAAGUCUGUAAUCAUUUUAAGGGUA [A62G A90U A94G] it is 1.11; for GUUAACGGUCAUAGGCCAUGGAAACUAGGAGCACCAUUUCGCUGCCAGUGAAGAAAUGAACGAAGAAAAUCCGGGCCAGGCAGGCCUCAAAAGAAAUAGUCUUGCGCUCGACCUGAAAGUCUGUAAUCAUUUUAAGGGUA [A62G U72C A86C A110G A114U] it is 0.01.

Take GUUAACGGUCAUAGGCCAUGGAAACUAGGAGCACCAUUUCGCUGCCAGUGAAGAAAUGAACUAAGAAAAUCUGGGCCAGGCAGGCAUCAAAAGAAGUAGUCUUGCGCUCAACCGGAAAGUCUGUAAUCAUUUUAAGGGUA [A62U A96G A114G]: the self-cleavage was 0.81. In the case of GUUAACGGUCAUAGGCCAUGGAAACUAGGAGCACCAUUUCGCUGCCAGUGAAGAAAUGAACUAAGAAAAUCAGGGCCAGGCAGGCAUCAAAAGAAAUAGUCUUGCGCUUAACCAGAAAGUCUGUAAUCAUUUUAAGGGUA [A62U U72A C109U], the self-cleavage came out at 0.04. The figure for GUUAACGGUCAUAGGCCAUGGAAACUAGGAGCACCAUUUCGCUGCCAGUGAAGAAAUGAACAGAGAUAAUCUGGGCCAGGCAGGCAUCAAAAGAAAUAGUCUUGCGCUCAACCAGAAAGUCUGUAAUCAUUUUAAGGGUG [A63G A67U A140G] is 1.5; for GUUAACGGUCAUAGGCCAUGGAAACUAGGAGCACCAUUUCGCUGCCAGUGAAGAAAUGAACGAAGAAAAUCUGGGCCAGGCAGGCAUCAAAAGGAAUAGUCUUGCGCUCAACCGGAAAGUCUGUAAUCAUUUUAAGGGUA [A62G A94G A114G] it is 0.53. For the variant GUUAACGGUCAUAGGCCAUGGAAACUAGGAGCACCAUUUCGCUGCCAGUGAAGAAAUGAACGAAGAAAAUCUGGGCCAGGCAGGCAUCAAAAGAGAUAGUCUUGCGCCCAACCGGAAAGCCUGUAAUCAUCUUAAGGGUA [A62G A95G U108C A114G U120C U131C], the self-cleavage turned out to be 0.

As for GUUAACGGUCAUAGGCCAUGGAAACUAGGAGCACCAUUUCGCUGCCAGUGAAGAAAUGAACGAAGAAAAUCUGGGCCAGGCAGGCUUCAAAAGAAAUAGUCCUGCGCUCAACCAGAAAGUCUGUAAUAACUUUAAGGGUA [A62G A86U U102C C128A U130C], the self-cleavage stood at 2.23. In the case of GUUAACGGUCAUAGGCCAUGGAAACUAGGAGCACCAUUUCGCUGCCAGUGAAGAAAUGAACGAAGAAAAUCUGGGCCAGGCAGGCAUCAAAAGAAAUAGUCCUGCGCUCAACCUGAAAGUCUGUAAUCAUUUUAGGGGUA [A62G U102C A114U A135G], the self-cleavage was determined as 0.11.

As for GUUAACGGUCAUAGGCCAUGGAAACUAGGAGCACCAUUUCGCUGCCAGUGAAGAAAUGAACGAAGAAAAUCUGGGCCAGGCAGGCAUCAAAAGAAAUAGUCUUGCGCUCAGCCAGAAUGUCUGUAAUCAUUUUAAGGGUA [A62G A111G A118U], the self-cleavage amounted to 0. Next, GUUAACGGUCAUAGGCCAUGGAAACUAGGAGCACCAUUUCGCUGCCAGUGAAGAAAUGAACGAAGAAAAUCUGGGCCUGGCAGGCAUCAAAAGAAAUAGACUUGCGCUCAACCAGAAAGUCUGUAAUCCCUUUAAGGGUA [A62G A78U U100A A129C U130C]: 0.03; GUUAACGGUCAUAGGCCAUGGAAACUAGGAGCACCAUUUCGCUGCCAGUGAAGAAAUGAACGAAGAAAAUCUGGGCCAGGCAGGCAUCAAAAGAAAUAGUCUUGCGCUCAACCAGAAGGUCUGUAAUCAUUCUAAGGGUA [A62G A118G U132C]: 0.93; GUUAACGGUCAUAGGCCAUGGAAACUAGGAGCACCAUUUCGCUGCCAGUGAAGAAAUGAACAGAGAAACUCUGGGCCAGGCUGGCAUCAAAAGAAAUAGUCUUGCGCUCAGCCAGAAAGUCUGUAAUCAUUUUAAGGGUA [A63G A69C A82U A111G]: 0.04.
